Reference: ChEMBL document CHEMBL4888484, “Replenishing the malaria drug discovery pipeline: Screening and hit evaluation of the MMV Hit Generation Library 1 (HGL1) against asexual blood stage Plasmodium falciparum ,using a nano luciferase reporter read-out” (2022)
In all, about 150,000 compounds went through this assay and about 540 (0.36%) showed an effect of 50% or more. Some of the results follow.

The compounds below were run on Plasmodium falciparum (assay: Primary screen in NF54 nanoGlo assay, in single point, at 2uM, 72h; a lower Z score goes with more inhibition). Conditions: timepoint 72 hour.
Format: functional, Erythrocyte

SMILES	% Inhibition [%]	Z score
COc1ccc(S(=O)(=O)N2CC(=O)N3CCc4ccccc4[C@@H]3C2)cc1C	1	-0.1
CN(Cc1nn(C)c2cccc(Cl)c12)C[C@H]1CC(=O)N(C2CCCC2)C1	-1	0.27
CCC[C@@H](C(=O)NCc1cccnc1)n1c(Cc2ccc(Cl)cc2Cl)nc2ccccc21	2	-0.17
Cc1cc(C(=O)Nc2ccc(S(=O)(=O)N3CCCC3)cc2)no1	-13	1.11
COC[C@@H](c1ccccn1)N(C)C(=O)c1c(C)nc2ccc(Cl)cn12	0	0.01
O=C(CCS(=O)(=O)Cc1ccc(F)cc1Cl)Nc1ccc(F)cc1	-8	1.51
c1ccc(CCOCc2cccc(NCc3cc[nH]n3)c2)cc1	-5	0.61
CC1(C)COCCN1CCNC(=O)N1CC[C@H](CO)C1	32	-3.57
CCc1noc([C@@H]2CCCN2C(=O)Cc2ccc3c(c2)OCO3)n1	-8	1.22
CCC(C)(C)C(=O)N1C[C@H](c2nc(C)no2)C2(CCOCC2)C1	-7	1.23
CCN(CC1CCN(c2ccccn2)CC1)C(=O)c1cnccn1	0	-0.04
Cc1c(S(=O)(=O)c2ccc(F)cc2)c(N)n(Cc2ccccn2)c1C	-1	0.12
O=C(O)c1cc(N2C[C@@H]3[C@H](C2)[C@H]2CC[C@@H]3O2)nc2ccccc12	-4	0.87
CCCCS(=O)(=O)N1CC[C@H](CNc2nccc(C)n2)C1	-10	1.93
O=C(Nc1nccs1)c1ccc2[nH]c3c(c2c1)CCCC3	-11	1.54
Cc1c(CC(=O)NC(C)C)c2c(n1Cc1ccccc1F)CCCC2=O	-14	2.11
Cc1nn(C)c2nc(NC[C@H](C)Oc3cccnc3)sc12	-9	1.68
CN1CCO[C@@H](CNCC(=O)N(C)Cc2cccs2)C1	-6	0.87
O=C(NCCc1cccnc1)C1CC2CCC1C2 (stereo not drawn)	-13	1.68
O=C(c1cc2ccccc2[nH]1)N1CCC[C@H]1c1ccncc1	-13	1.82
COc1cc(C)cc(NC(=O)N2CC[C@H](CN3CCCC3)C2)c1C	10	-1.78

SMILES	% Inhibition [%]	Z score
C[C@@H](C(=O)N(C)Cc1cccc(F)c1)N1CCCN(S(C)(=O)=O)CC1	-2	0.27
COC(=O)C1CCc2nnc(C3(C)CCCO3)n2CC1 (stereo not drawn)	2	-0.39
CCOc1ccc([C@@H](O)Cn2ccn3nc(-c4ccccc4C)cc3c2=O)cc1	-4	0.33
Cc1cccc([C@@H](NS(N)(=O)=O)C(C)(C)C)c1	8	-1.2
COc1ccc(CCS(=O)(=O)NCC2CCN(c3cnccn3)CC2)cc1	-12	1.88
CC(C)(CC1CCCN(C(=O)NC2CC3CC3C2)C1)C(N)=O (stereo not drawn)	1	-0.2
NS(=O)(=O)CCN1CCCC1C1CCCc2ccccc21 (stereo not drawn)	4	-0.54
CCn1c(CO)nnc1[C@H]1C[C@H](NC(=O)CCc2c(C)nn(C)c2C)C1	1	-0.17
Cc1cc(CN2C(=O)N[C@@](C)(CCC(C)C)C2=O)on1	-11	0.98
CCCNS(=O)(=O)c1cc(-c2nc(C)c(C(=O)N3CCC(C)CC3)s2)n(C)c1C	-5	0.65
Cc1ccn2c(CN3CCN([C@H]4CCN(Cc5ccccc5)C4)CC3)c(C)nc2c1	57	-7.67
COCC1(C(=O)N2CCC3(CCCC3)C2)CCC1	1	-0.22
C[C@H]1CCCCN1C(=O)CN1CCOCC12CCCC2	2	-0.24
Fc1cc(Br)cc([C@H](CC2CC2)NCc2ccno2)c1	-5	0.56
CC(C)[C@H](Cn1ccnc1)NC(=O)c1ccc(=O)n(C)c1	-11	2.18
C=CCNC(=O)CN1CCC[C@H](OCC)C1	-5	0.7
CCn1cc(C)c(C(=O)O)c1CC(=O)N1CCN(c2ccc(OC)cc2)CC1	9	-1.25
C[C@H](NCc1nccs1)c1ccc(Cl)cc1Cl	-12	1.54
CC(CCc1cccc(F)c1)N(C)C1CCS(=O)(=O)C1 (stereo not drawn)	-7	1.27
CCc1ccc(S(=O)(=O)Nc2ccccc2CCc2nc3ccccc3n2CC)cc1	-8	0.89
Cn1c(=O)n(C[C@@H]2CCNC(=O)CC2)c2ccccc21	-14	2.6

SMILES	% Inhibition [%]	Z score
Cc1cnc(Cn2cc(-c3cccc(Cl)c3Cl)nn2)cn1	0	0.08
CCCCn1nc(-c2ccc(C(N)=O)cc2)nc1[C@H](C)N1CCCC1=O	-14	1.62
CCOC1CCN([C@@H](C)CNS(=O)(=O)CC)CC1	-6	1.36
CN(C)C[C@]1(O)CCCN(Cc2c(-c3ccccc3)nc3ncccn23)C1	2	-0.32
CNS(=O)(=O)[C@H]1CCN(Cc2cn(C)nc2C2CCCC2)C1	-4	0.53
C[C@@H]1CN(Cc2ccc3c(c2)CN(C(=O)c2ccc(Oc4ccccc4)o2)CCO3)C[C@H](C)O1	7	-0.86
COc1cc2c(cc1OC)CN(C(=O)[C@H](Cc1ccccc1)n1cnnn1)CC2	-13	1.8
Cc1ccc(C)c(CN2C(=O)[C@](O)(CC(=O)c3ccccn3)c3ccccc32)c1	15	-2.04
CCCn1nnnc1CN1CC2CCCN(c3nnnn3C)C2C1 (stereo not drawn)	-5	0.69
CC[C@@H]1Oc2ccc(NC(=O)c3ccccc3OC)cc2CN(Cc2cccc(C(F)(F)F)c2)C1=O	2	-0.14
O=C(CC1(CC2=Nc3ccccc3S(=O)(=O)N2)CCCC1)NC1CCCCCC1	-6	0.71
CC(C)(N)c1ccc(Cl)c(Cl)c1	-9	1.19
CO[C@@]12CC[C@H](O)C[C@@H]1N(C(=O)c1nc(=O)[nH]c3ccccc13)CC2	-7	0.7
O=C1CN(C(=O)c2ccc(NC(=O)CCn3ccc4ccc(Cl)cc43)cc2)CCN1	-5	0.69
CCc1nnc(CN[C@@H](C)c2ccc(OC(F)(F)F)cc2)n1C	-6	0.81
CC(C)=CCC[C@H](C)CN1CCCn2nc(CNC(=O)N(C)C)cc2C1	0	0.04
Cc1cc(C)n(C[C@H](C)N2CCN(Cc3ccc(F)cc3)CC2)n1	-13	1.84
O=C(NCc1cncc(N2CCCC2=O)c1)c1ccccc1Br	-6	1.04
Cc1ccc2nc(Cn3c(=O)[nH]c4ccccc43)cn2c1	-17	1.97
C[C@@H](CNC(=O)CCC(N)=O)c1nc2ccccc2o1	-11	1.76
O=C(Cc1ccc2cccnc2c1)N1CCOC[C@@H]1CCO	-6	1.17

SMILES	% Inhibition [%]	Z score
Cc1ccc2c(c1)CCCN2C(=O)c1ccc(S(=O)(=O)N2CCNC(=O)C2)cc1	-3	0.48
CCc1c(C)nc(C)nc1N1CC[C@H](N(C)C)[C@H](CCCO)C1	-7	0.97
Cn1nc(C2CCCC2)cc1NC(=O)CCc1ccncc1	-3	0.4
O=C(NC1C2CCc3ccccc3C21)N1CCC(n2cccn2)CC1 (stereo not drawn)	-14	1.65
Cc1cc([C@@H](NS(=O)(=O)c2c(C)cnn2C)C(=O)O)ccc1Cl	-3	0.55
Cc1c[nH]c(CNC(=O)N(CCOc2ccccc2)C[C@H]2CCCO2)n1	-18	2.09
COc1ccc(-c2cc(C(=O)N3CCC[C@@H]3CO)[nH]n2)cc1	-16	3.2
Cn1c(=O)n([C@H]2CCN(C(=O)NC3CCCCC3)C2)c2ncncc21	-17	1.72
COC1CCN(S(=O)(=O)c2cc3cc(Cl)ccc3s2)CC1	-5	0.74
Cc1noc(C)c1S(=O)(=O)N1CCCc2cnc(N3CCOCC3)nc21	-15	1.75
Cc1ccccc1-n1c(=O)n(C2CC2)c(=O)c2c1ncn2Cc1ccccc1C#N	3	-0.55
CCC[C@H]1CN(c2ncc(F)c(N3CCOCC3)n2)C[C@@H]1C(=O)O	-15	1.89
O=C(N[C@H]1CO[C@@H](CN2CCC(F)(F)CC2)[C@@H]1O)C1CCC1	6	-0.93
CCCn1nc(C(=O)N(C)[C@H]2CCS(=O)(=O)C2)ccc1=O	-8	0.71
Cc1cc(C(=O)N2C[C@H](C)Oc3cc(F)c(F)cc32)ncn1	-7	1.15
O=C(NC[C@H]1CN(c2ccccc2)C(=O)O1)c1cc2n(n1)CCCO2	-20	3.08
Cc1c(CNC2CCCCC2C(F)(F)F)cc(C#N)n1C (stereo not drawn)	-8	1.08
COc1cccc(CNc2nnc(CC3CCCC3)s2)n1	-16	2.39
OC[C@H]1CCCN1CCN1CCN(Cc2ccccc2)CC1	2	-0.32
CCNC(=O)N1CCC(NC(C)c2sccc2C)C1 (stereo not drawn)	-2	0.2
Cc1ccnc(-n2c(=O)c3cc4c(=O)n(-c5cc(C)ccn5)c(=O)c4cc3c2=O)c1	-12	1.48
